# The whole screen tested about 140,000 compounds, of which about 240 (0.17%) were called active. The shares of active, inactive and inconclusive entries below differ from those in the screen. Calls follow the shape of the dose curve; as a rule, active = well fitted inhibition curve with a large enough effect; inconclusive = small, poorly fitted or top-dose-only effect; inactive = no such curve, though single readings can be large or run the other way. Potencies beside an inconclusive call are fits to weak or partial responses and may not hold up.
# Assay: Primary qHTS assay for inhibitors of alpha-synuclein gene (SNCA) expression; also: nearly all actives have a fitted effect of over 45% in size;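 as to activity change, negative = inhibition: plate controls were DMSO cells for no effect and cell-free wells for full effect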
# Conditions: HEK-293 SNCA-luciferase knock-in, luminescence, 24 h; activity change, negative = inhibition: at 57.2 µM (top of the series) unless noted
# Potency is read from the fitted curve at half-maximal effect; tags tell the direction and shape of the fitted curve.
Compound,Potency,"activity change, negative = inhibition"
O=C(Nc1nc2ccc(F)cc2s1)c1nc(S(=O)(=O)Cc2ccccc2)ncc1Cl,"inconclusive: 39.8 µM [inhibitor, single point]",
CC(C)CCC(=O)N1C[C@@H](CO)[C@H](c2ccccn2)C1,"inconclusive: 6.31 µM [inhibitor, full curve]",
Cc1ccccc1CNC(=O)c1nn(CC2CC2)c2c1CNCC2,,inactive: -12.3%
Cc1cccc(N(C)C(=O)Cn2c(=O)n(-c3ccc(F)cc3)c(=O)c3c2cc(C)n3C)c1,"inconclusive: 1.58 µM [inhibitor, partial curve, poor fit]",
CN(C)C(=O)c1nc2cccnc2n(CCc2ccccc2)c1=O,,inactive: 6.45% [at 87.6 µM]
O=C1c2cnc(-c3ccc(Oc4ccccc4)cc3)nc2OCCN1CC1CC1,"inconclusive: 56.2 µM [inhibitor, single point]",
Cc1cnc(CN(C)C(=O)CC(c2ccccc2)c2ccc3c(c2)OCO3)[nH]1 (configuration not stated),"inconclusive: 11.2 µM [inhibitor, partial curve, poor fit]",
CCOC(=O)CC1c2cc(OCC)c(OCC)cc2CCN1C(=O)Nc1cccc(Cl)c1 (configuration not stated),"inconclusive: 1 µM [inhibitor, full curve, poor fit]",
CN(C)c1cccc(-c2nc(-c3nnn4c3COC(c3ccc(Cl)cc3)C4)no2)c1 (configuration not stated),,inactive: 49.4%
O=C1NCCC[C@@H]1NC(=O)[C@H]1CN(C(=O)c2cccs2)CCN1C(=O)c1cccs1,,inactive: 3.85%
O=C(NC1CCCC1)N1CC(Oc2ccccc2-c2nc(-c3ccccc3)no2)C1,"inconclusive: 31.6 µM [inhibitor, partial curve, poor fit]",
CCNC(=O)N[C@H]1CO[C@H]2[C@@H]1OC[C@@H]2Nc1nccc(-c2cccc(F)c2)n1,"inconclusive: 56.2 µM [inhibitor, single point]",
O=C(c1nc2cccnc2n(Cc2ccccc2)c1=O)N1CCOCC1,,inactive: 29.1%
O=C(NCCc1csc(-c2cnccn2)n1)C1CC2(CCNCC2)CN1 (configuration not stated),"inconclusive: 39.8 µM [inhibitor, single point]",
Cc1nc2cncnc2n(Cc2ccccc2Cl)c1=O,"inconclusive: 39.8 µM [inhibitor, single point]",
COc1cccc(Nc2ccc3c(n2)C(C)(C(=O)NC2CCC2)CN(C)C3)c1 (configuration not stated),,inactive: -9.35% [at 87.6 µM]
COc1ccc(-c2ccnc(N[C@H]3CO[C@H]4[C@@H]3OC[C@@H]4NC(=O)CC3(CC(=O)O)CCCC3)n2)cc1,,inactive: -4.08%
CS(=O)c1ccc(-c2nc(-c3ccc(F)cc3)c(-c3ccncc3)[nH]2)cc1 (configuration not stated),active: 12.4 µM,
COc1ccc(CN2Cc3cc(NC(=O)c4ccc5c(c4)OCO5)ccc3OC(C)C2=O)cc1 (configuration not stated),,inactive: -17.4%
Cn1cc(CN2CCNc3cnc(-c4ccccc4)cc3C2)cn1,,inactive: -28.1% [at 87.6 µM]
Cc1noc(C)c1[S+](=O)([O-])N1CCn2c(nnc2-c2ccccc2)C1,"inconclusive: 6.31 µM [inhibitor, single point]",

Compound,Potency,"activity change, negative = inhibition"
O=C(N1CCN(c2ccccc2)CC1)C1(CCO)CC12CCOCC2 (configuration not stated),"inconclusive: 8.91 µM [inhibitor, single point]",
COc1ccc(OC)c(-c2nc(CN3CCCC(C(C)(C)O)C3)c(C)o2)c1 (configuration not stated),,inactive: -2.65%
O=C1[C@@H]2C[C@@H](CN2Cc2ccc(Cl)cc2)Oc2ccccc2N1Cc1ccccc1,"inconclusive: 56.2 µM [inhibitor, single point]",
COc1ccccc1CNC(=O)c1cc2n(n1)CC(c1ccc(Cl)cc1)OC2 (configuration not stated),"inconclusive: 7.94 µM [inhibitor, full curve, poor fit]",
CC(C)CCN1CC2(CCN(C(=O)CCC3NC(=O)NC3=O)CC2)OC1=O (configuration not stated),"inconclusive: 3.16 µM [inhibitor, single point]",
O=C(CC1C(=O)OCCN1Cc1ccccc1)Nc1cccc(C(F)(F)F)c1 (configuration not stated),"inconclusive: 44.7 µM [inhibitor, single point]",
COCC(=O)NC1CCN(Cc2cccc(-c3cccs3)c2)CC1,"inconclusive: 12.6 µM [inhibitor, single point]",
C[C@@H]1CN(C(=O)c2ccn(C(C)(C)C)c2)CC[C@@]1(O)C1CCOCC1,"inconclusive: 28.2 µM [inhibitor, single point]",
COc1cccc(CNC(=O)CCCN2C(=O)CSc3c2c(C)nn3-c2ccccc2)c1,"inconclusive: 20 µM [inhibitor, single point]",
CC(=O)Nc1ccc(NC(=O)CCNc2c(-c3ccc(F)cc3)nc3cnccn23)cc1,,inactive: -3.89%
O=C(c1ccc(OC2CCN(C(=O)c3cccc(Cl)c3)CC2)nc1)N1CCOCC1,"inconclusive: 10 µM [inhibitor, partial curve, poor fit]",
CN1CCOc2c(C(=O)NCc3cccnc3)cc(-c3ccccc3F)cc21,,inactive: -9.28% [at 87.6 µM]
CCOc1ccc(-c2cc3c(=O)n(CCNC(=O)c4cccc(C#N)c4)ccn3n2)cc1,,inactive: 76.7%
COc1cccc(-n2cc(C(=O)NCc3cccc(Cl)c3)c3ccccc3c2=O)c1,"inconclusive: 25.1 µM [inhibitor, single point]",
O=C(Cn1c(=O)oc2ccccc21)N1CCCC(Cc2noc(-c3ccccc3)n2)C1 (configuration not stated),,inactive: 88.1%
O=C(Cc1cccs1)N1CCC2(CC1)N=C(c1ccc(Cl)cc1)NO2,"inconclusive: 20 µM [inhibitor, partial curve, poor fit]",
COc1ccc(NC(=O)c2c(-c3ccccc3)c(-c3ccccc3)nn(C)c2=O)c(OC)c1,"inconclusive: 0.178 µM [inhibitor, full curve, poor fit]",
COc1ccc(OCC(=O)NCC(c2ccc(Cl)cc2)N2CCCCC2)cc1 (configuration not stated),"inconclusive: 39.8 µM [inhibitor, single point]",
COc1ccc(C2Cn3nnc(C(=O)N4CCC(C(=O)Nc5cc(C)cc(C)c5)CC4)c3CO2)cc1 (configuration not stated),"inconclusive: 4.47 µM [inhibitor, single point]",
COCCN1CCC(C(=O)Nc2cccc(NC(=O)Cc3ccccc3)c2)C1 (configuration not stated),"inconclusive: 6.31 µM [inhibitor, single point]",
COCCOC1CCOC2(CCN(C(=O)Nc3ccc(OC)cc3)CC2)C1 (configuration not stated),"inconclusive: 2.82 µM [inhibitor, partial curve, poor fit]",

# From PubChem BioAssay AID1671194 (National Center for Advancing Translational Sciences (NCATS), 2021)
